Results published in the RNAGym collection of RNA variant scans (doi:10.1093/nar/gkz1192).
Read counts are not given, so values of variants with three or more changes are uncertain.

B1: CPEB3 Ribozyme (parent)
chain: UAACAGGGGGCCACAGCAGAAGCGUUCACGUCGCAGCCCCUGUCAGAUUCUGGUGAAUCUGCGAAUUCUGCUGUAUAUCUC

Variants of: B1
Experiment: self-cleavage, relative activity (ratio to wild type); higher = more cleavage; in vitro, sequencing
Outline: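 Relative activity compares each variant's cleaved/total read fraction with that of the unmutated ribozyme. To get these fractions, barcoded CPEB3 ribozyme libraries from rounds of error-prone PCR were transcribed with T7 RNA polymerase for 5 hours at 37°C and then given 15 min of DNase I treatment before EDTA was added. The RNAs were reverse transcribed with template switching and sequenced on Illumina, and DNA sequencing linked barcodes to variants. A minimum of 5 reads applied, and three batches were averaged.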

Variant	self-cleavage
U1C A20G A35G	0.99
U1C A3G A20G U43C	0.14
U1C A2U A45G	0.49
U1C A13G U31C G33C C39U U41C U58A	0.04
U1C A5U A21G U25A G53C U72C	0.3
U1C A2G G6A	0.4
U1C A20U A64G	0.25
U1A U49C U80C	0.5
U1C A15G C40U U54C U76A	0.33
U1C A21G A35U U51C U74C	0.12
U1C A13U C40U U54A U60A A64G A65G	0.05
U1C A5C C23U U69C U72C A77U U80C	0.11
U1C A13U U25C	0.4
U1C A18G A57G C62U A65G U76A	0.15
U1C A13G U43C U54A	0.42
U1C A20G U51A U74A U80C	0.97
U1C A2U U72A	0.76
U1C A13U A18G G24A U41A	0.23
U1C A5G G9U A15U G16C A35G	0.43
U1C A15G A18G A35G U58A	0.75
U1C A2U A20U A35U A75U	0.24
U1C A2U A21G U25C A28G C40U U51C	0.03
U1C A20G C37U U54G U60A U78C	0.1
U1C A2G A5U U43G U72A	0.08

Variant	self-cleavage
U1A U54G U67C	0.18
U1C A2G U54C	0.71
U1C A20G G36C U51C A65G U78C	0.12
U1C A13U U26A G46U A65G	0.18
U1C A18G U67C A75U	0.21
U1C A20U U72A	0.26
U1C A3G A13C C37A U80C	0.1
U1C A5G U72G U74C U80C	0.66
U1C A2G A45G U49A G53C G73U A75U	0.57
U1C A3G C37U A65G U67A	0.09
U1C A15G G19U C59A	0.11
U1C A18G U58C A64U	0.14
U1C A18G C37A	0.31
U1C A13G U51A U60C U67C	0.25
U1C A3G C17U A28G A35C A64G U72A	0.04
U1C A5U U25A U41A U49A	0.08
U1C A3G A18U	0.67
U1C A5G U25C G36A U54C U72C	0.07
U1C A13U C23U G24C U51G	0.14
U1C A5G G24A	0.32
U1C A15G A20U A56G U58C G73A U80A	0.24
U1C A13U U25C U41G U60A U69C	0.03
U1C A18G U26C A56U	0.05
U1C A2G A18G C32A A35U C37A U67A	0.05

Variant	self-cleavage
U1C A3G A57U U66G	0.19
U1C A3G A20G A28G G33A A45U U48C	0.05
U1C A3G U51A U80C	0.69
U1C A18G A21G U26A U78C	0.2
U1C A3G A5U G36A U41A A45U U72A	0.09
U1C A15U U41A U60A A64G U74G U76A	0.21
U1C A15U A21U A47G G70A	0.05
U1C A15G U54C	0.41
U1C A13G A45G U67C A75G	0.09
U1C A18U U41C A45G A64G U78A	0.19
U1C A20G A47U U60C	0.1
U1C A18G A35G A56U A64U	0.18
U1C A3C C11U U31A U41C	0.53
U1C A3G A21C U31C U49C U60C	0
U1C A18G C39U G46A A64G U69C	0.12
U1C A18U G33A C40U U72A	0.05
U1C A18C U25A A45G	0.06
U1C A3G A21G	0.8
U1C A18G U51A A56U A64G	0.38
U1C A21G G30A A35G U41A A77U	0.06
U1A U60C U76C U78C	0.34
U1C A5C A28G U41C A64G A65G A75U	0.35
U1C A2G U25C C32U C37A A47G	0.05
U1C A15G A57C U67C	0.12

Variant	self-cleavage
U1C A15C A47G A64G	0.22
U1C A3G G16A G30A	0.34
U1C A2G C11G A57G	0.11
U1C A13U A20G A21G C71A	0.09
U1C A2G U26C A35G U49C	0.07
U1A U49C C71U U76C	0.15
U1C A2G U51C	0.85
U1C A2U G9U A64G U69C	0.16
U1C A13G A45G C59A A65G	0.09
U1C A15U A18G A20G A64G	0.06
U1C A20U U51A	0.11
U1C A18G U25A A28U C32U G61A	0.07
U1C A18G G53C U69A A77C	0.27
U1C A13G U41A U54C A57U	0.17
U1C A2U U25C U49C U60C	0.06
U1C A3G A20U U43A	0.51
U1C A5G G61U U72C	0.36
U1C A2U A21U A28G A45U A56G A75U	0.04
U1C A20G U31A A47G	0.31
U1C A3G G10A C11U U31A A57G U66G	0.06
U1C A3U A13U U66C	0.23
U1C A20G U25C G30C A47G	0.35
U1C A2G U60C	0.42
U1C A3G U31G	0.62

Variant	self-cleavage
U1C A5G G9A A21U U26C U80A	0.36
U1C A2C C12A A13G C44A A56G	0.08
U1C A20U U31C A77U	0.14
U1C A13C C27U A56G G63A A77C	0.08
U1C A5G A45U A64G U67G	0.08
U1C A2U G6U C39A U72C	0.23
U1C A3G A56G U72C	0.75
U1C A2U U43C U54C G61A A65G	0.11
U1C A18C U69C C81U	0.18
U1C A18U C40A U58A U60A A75U	0.05
U1C A18U C29A U51C U69A U74C U78C	0.3
U1C A5U A28U C40A U80A C81G	0.25
U1C A20U G61C U69C U72G U74A	0.08
U1C A5G U41C	0.18
U1C A13G A28U A35U A56U	0.25
U1C A18G C39G U41C A57U	0.25
U1C A2U G22A C40U U43C U67C	0.05
U1C A18C C23U C38G A47G U49C A56U	0.22
U1C A5U G7C U43C U48C U54C	0.06
U1C A5C A13G U25C A35G U49A	0
U1C A20G U31C C32A C38G C59U	0.11
U1C A2G U25C	0.23
U1C A5G U26C C50U	0.49
U1C A5U U48C U60A U66C	0.17

Variant	self-cleavage
U1C A13U A28G	0.34
U1C A18U U26C U48C U51A	0.29
U1C A20G A35G U48A A65G	0.1
U1C A20G A45G U54A A64G U72C	0.13
U1C A18U U51G U74C	0.19
U1C A2G C39A U43C U80A	0.12
U1C A5U A15G A47G U54A A65G U74C	0.26
U1C A3G G73U	1.22
U1C A13U U51A G63A U67C	0.22
U1C A5G A35U U67C	0.11
U1C A13G A20G U78C	0.42
U1C A5G A35U U66C	0.22
U1C A5U A65G U78C	0.46
U1A U67C U69C U72A	0.21
U1C A20G G24C C40U	0.06
U1C A15G A18G C32U A35U U80A	0.8
U1C A5G G6U A20U U80C	0.84
U1C A13G U41C U51A	0.73
U1C A20G U26A U80C	0.63
U1C A5U A13G U26C G55U U72C	0.25
U1C A15U A56U G73C	0.4
U1C A15G C37A U54C U74C	0.08
U1C A21G A64G	0.43
U1C A15U U54C U66C U69C	0.11

Variant	self-cleavage
U1C A5U A56U	0.63
U1C A5U A20G	0.33
U1C A5G U80C C81U	0.89
U1C A15G U26C C68U A77G	0.53
U1C A3G A5U A18U C23U U58C U72A	0.04
U1C A3C A15G	0.59
U1C A20G A21G U31C C39U U78C	0.04
U1C A13U G33A U54A U74C	0.28
U1C A15G U25C U51C	0.1
U1C A5U U26A U51G U58A U66C	0.08
U1C A5U A20U U31C	0.13
U1C A5C U25C U26A	0.11
U1C A15U A20G U69C	0.18
U1C A21G A56G U58A G61A U72C	0.1
U1C A5G A13U U41C A45G U60A U69A	0.03
U1C A20C U31C	0.22
U1C A5U A15G U26C U51A A56G U60C	0.08
U1C A3G A13G U25C C29G U41C A64U	0.09
U1C A15G A18U A20G C62U	0.05
U1C A2G C11U U41A A77G	0.26
U1C A18C A45G U54A G70A	0.29
U1C A15U U41A	0.36
U1C A15U A20U U25C A35G U41C A45U	0.25
